A compilation of properties of binary mixtures (doi:10.1016/j.molliq.2017.03.027)
The densities may have been worked out from excess volumes.

Experiment: xn = mol fraction of the nth substance listed
Conditions: 100 kPa

With `CCCC[n+]1ccn(C)c1.O=S(=O)([N-]S(=O)(=O)C(F)(F)F)C(F)(F)F` + CO the mass density (298.15 K, x2 = 0.2068) was 1409.3 kg/m3, the mass density (298.15 K, x2 = 0.295) was 1396.2 kg/m3 and the mass density (298.15 K, x2 = 0.4004) was 1380.6 kg/m3. The mass density (298.15 K, x2 = 0.4923) was 1366.3 kg/m3, the mass density (298.15 K, x2 = 0.5956) was 1343.8 kg/m3 and the mass density (298.15 K, x2 = 0.7947) was 1238.6 kg/m3. It also gave a mass density (298.15 K, x2 = 0.8978) of 1085.7 kg/m3, a mass density (303.15 K, x2 = 0.2068) of 1404.5 kg/m3 and a mass density (303.15 K, x2 = 0.295) of 1391.4 kg/m3. The mass density (303.15 K, x2 = 0.4923) was 1361.4 kg/m3, the mass density (303.15 K, x2 = 0.5956) was 1338.8 kg/m3 and the mass density (303.15 K, x2 = 0.7056) was 1298.1 kg/m3. It also gave a mass density (303.15 K, x2 = 0.7947) of 1233.5 kg/m3, a mass density (303.15 K, x2 = 0.8978) of 1080.7 kg/m3 and a mass density (308.15 K, x2 = 0) of 1426.4 kg/m3. The mass density (308.15 K, x2 = 0.0986) was 1412.8 kg/m3, the mass density (308.15 K, x2 = 0.2068) was 1399.7 kg/m3 and the mass density (308.15 K, x2 = 0.295) was 1386.6 kg/m3. It also gave a mass density (308.15 K, x2 = 0.4004) of 1371 kg/m3, a mass density (308.15 K, x2 = 0.4923) of 1356.5 kg/m3 and a mass density (308.15 K, x2 = 0.5956) of 1333.9 kg/m3. The mass density (308.15 K, x2 = 0.7056) was 1293.2 kg/m3, the mass density (308.15 K, x2 = 0.7947) was 1228.5 kg/m3 and the mass density (308.15 K, x2 = 0.8978) was 1075.7 kg/m3. It also gave a mass density (313.15 K, x2 = 0) of 1421.6 kg/m3, a mass density (313.15 K, x2 = 0.0986) of 1408 kg/m3 and a mass density (313.15 K, x2 = 0.2068) of 1395 kg/m3. It also gave a mass density (313.15 K, x2 = 0.295) of 1381.9 kg/m3, a mass density (313.15 K, x2 = 0.4004) of 1366.2 kg/m3 and a mass density (313.15 K, x2 = 0.4923) of 1351.6 kg/m3. It also gave a mass density (313.15 K, x2 = 0.5956) of 1329 kg/m3, a mass density (313.15 K, x2 = 0.7056) of 1288.2 kg/m3 and a mass density (313.15 K, x2 = 0.7947) of 1223.4 kg/m3. It also gave a mass density (313.15 K, x2 = 0.8978) of 1070.7 kg/m3, a mass density (318.15 K, x2 = 0) of 1416.9 kg/m3 and a mass density (318.15 K, x2 = 0.2068) of 1390.2 kg/m3. The mass density (318.15 K, x2 = 0.4004) was 1361.5 kg/m3, the mass density (318.15 K, x2 = 0.5956) was 1324.1 kg/m3 and the mass density (318.15 K, x2 = 0.7947) was 1218.4 kg/m3. It also gave a mass density (318.15 K, x2 = 0.8978) of 1065.6 kg/m3, a mass density (323.15 K, x2 = 0) of 1412.1 kg/m3 and a mass density (323.15 K, x2 = 0.0986) of 1398.6 kg/m3. The mass density (323.15 K, x2 = 0.2068) was 1385.6 kg/m3, the mass density (323.15 K, x2 = 0.295) was 1372.5 kg/m3 and the mass density (323.15 K, x2 = 0.4004) was 1356.7 kg/m3. For the same compound, the mass density (323.15 K, x2 = 0.4923) was 1342 kg/m3, the mass density (323.15 K, x2 = 0.5956) was 1319.2 kg/m3 and the mass density (323.15 K, x2 = 0.7947) was 1213.4 kg/m3.
`CS(C)=O` + CCCC[n+]1ccn(C)c1.O=S(=O)([N-]S(=O)(=O)C(F)(F)F)C(F)(F)F showed a mass density (298.15 K, x1 = 0.0951) of 1424.4 kg/m3, a mass density (298.15 K, x1 = 0.2074) of 1409.1 kg/m3 and a mass density (298.15 K, x1 = 0.2885) of 1397.6 kg/m3. The mass density (298.15 K, x1 = 0.4003) was 1376.2 kg/m3, the mass density (298.15 K, x1 = 0.5026) was 1355.7 kg/m3 and the mass density (298.15 K, x1 = 0.7066) was 1307.2 kg/m3. For the same compound, the mass density (298.15 K, x1 = 0.8039) was 1262.2 kg/m3, the mass density (298.15 K, x1 = 0.9012) was 1195.4 kg/m3 and the mass density (298.15 K, x1 = 1) was 1095.6 kg/m3. The mass density (303.15 K, x1 = 0.0951) was 1419.6 kg/m3, the mass density (303.15 K, x1 = 0.2074) was 1404.3 kg/m3 and the mass density (303.15 K, x1 = 0.4003) was 1371.3 kg/m3. The mass density (303.15 K, x1 = 0.5903) was 1334.6 kg/m3, the mass density (303.15 K, x1 = 0.7066) was 1302.3 kg/m3 and the mass density (303.15 K, x1 = 0.8039) was 1257.3 kg/m3. It also gave a mass density (303.15 K, x1 = 0.9012) of 1190.4 kg/m3, a mass density (303.15 K, x1 = 1) of 1090.6 kg/m3 and a mass density (308.15 K, x1 = 0.0951) of 1414.8 kg/m3. For the same compound, the mass density (308.15 K, x1 = 0.2074) was 1399.4 kg/m3, the mass density (308.15 K, x1 = 0.2885) was 1387.9 kg/m3 and the mass density (308.15 K, x1 = 0.4003) was 1366.5 kg/m3. For the same compound, the mass density (308.15 K, x1 = 0.5026) was 1345.9 kg/m3, the mass density (308.15 K, x1 = 0.7066) was 1297.4 kg/m3 and the mass density (308.15 K, x1 = 0.8039) was 1252.3 kg/m3. It also gave a mass density (308.15 K, x1 = 0.9012) of 1185.5 kg/m3, a mass density (313.15 K, x1 = 0.2885) of 1383.1 kg/m3 and a mass density (313.15 K, x1 = 0.4003) of 1361.6 kg/m3. For the same compound, the mass density (313.15 K, x1 = 0.5026) was 1341 kg/m3, the mass density (313.15 K, x1 = 0.7066) was 1292.5 kg/m3 and the mass density (313.15 K, x1 = 0.8039) was 1247.4 kg/m3. The mass density (313.15 K, x1 = 0.9012) was 1180.5 kg/m3, the mass density (318.15 K, x1 = 0.0951) was 1405.2 kg/m3 and the mass density (318.15 K, x1 = 0.2074) was 1389.8 kg/m3. It also gave a mass density (318.15 K, x1 = 0.2885) of 1378.2 kg/m3, a mass density (318.15 K, x1 = 0.4003) of 1356.7 kg/m3 and a mass density (318.15 K, x1 = 0.5026) of 1336.1 kg/m3. The mass density (318.15 K, x1 = 0.5903) was 1320 kg/m3, the mass density (318.15 K, x1 = 0.7066) was 1287.7 kg/m3 and the mass density (318.15 K, x1 = 0.8039) was 1242.5 kg/m3. It also gave a mass density (318.15 K, x1 = 0.9012) of 1175.6 kg/m3, a mass density (318.15 K, x1 = 1) of 1075.6 kg/m3 and a mass density (323.15 K, x1 = 0.0951) of 1400.5 kg/m3. It also gave a mass density (323.15 K, x1 = 0.2074) of 1385 kg/m3, a mass density (323.15 K, x1 = 0.2885) of 1373.4 kg/m3 and a mass density (323.15 K, x1 = 0.4003) of 1351.8 kg/m3. For the same compound, the mass density (323.15 K, x1 = 0.5026) was 1331.3 kg/m3, the mass density (323.15 K, x1 = 0.5903) was 1314.8 kg/m3 and the mass density (323.15 K, x1 = 0.7066) was 1282.8 kg/m3. For the same compound, the mass density (323.15 K, x1 = 0.8039) was 1237.8 kg/m3 and the mass density (323.15 K, x1 = 1) was 1070.7 kg/m3.
`CO` + CCCC[n+]1ccn(C)c1.O=S(=O)([N-]S(=O)(=O)C(F)(F)F)C(F)(F)F showed a mass density (298.15 K, x1 = 1) of 786.9 kg/m3, a mass density (303.15 K, x1 = 1) of 782.2 kg/m3 and a mass density (308.15 K, x1 = 1) of 777.4 kg/m3. For the same compound, the mass density (313.15 K, x1 = 1) was 772.6 kg/m3, the mass density (318.15 K, x1 = 1) was 767.8 kg/m3 and the mass density (323.15 K, x1 = 1) was 763 kg/m3.
For `CCCC[n+]1ccn(C)c1.O=S(=O)([N-]S(=O)(=O)C(F)(F)F)C(F)(F)F` + CS(C)=O, the mass density (298.15 K, x2 = 0) was 1435.9 kg/m3, the mass density (308.15 K, x2 = 0) was 1426.4 kg/m3 and the mass density (323.15 K, x2 = 0) was 1412.1 kg/m3.
